# Measurements: the supplement of paper PMC8728848
# This is one part of the list.
# B1: SP8524D-bot-399-27-399 (Bacteroides ovatus) (protein)
# chain: DAKYDTLDTHAYIEEALSSTSQKVTVQATGESFTTLNVHLSNLSSTDNHYKLVTDQSVLDTYNHINGTGYIMLPKDYYTLPETITVKAGQYAADALSIALKAFSQEMMKSGESYALPVKLVLQDGSISPMENTGTFVILAESIIEFSAPMFVGAPSLKANKFTESPETYSQYTIEVRFQVANTADRDRAVFKNGGDDANFILLRFEDPQSDNENYKAHSLVQIVGRNRLYLNPSNSFKPNEWQHLALVCDGSNYRLYINGVDSGVLSIPTGATTFSDVNWFCLGDDSYSRWGNCKILMSEARIWSVVRSASQIQNNMTQVSPKSVGLEAYWRFNEGQGNVFEDATGKGHTLTTSATPTWIDGILSTDKSTEWK
# Columns and labels:
# Assay in all cases: glycan array binding signal (z-score within array); higher = stronger binding
# Conditions in all cases: glycan notation: IUPAC condensed, linker removed
# [1] = biological target: Gal(b1-4)GlcNAc(b1-3)Gal(b1-4)GlcNAc(b1-2)[Gal(b1-4)GlcNAc(b1-3)Gal(b1-4)GlcNAc(b1-6)]Man(a1-6)[Gal(b1-4)GlcNAc(b1-3)Gal(b1-4)GlcNAc(b1-2)Man(a1-3)]Man(b1-4)GlcNAc(b1-4)GlcNAc
# Summary of the method: (§1)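 Negative Z-scores can be read as non-binding. The Z-score is calculated within each array and then averaged across arrays of one protein sequence at different concentrations or buffers and across linkers. Arrays, 3228 in all, were curated from the Consortium for Functional Glycomics database and kept only where the protein sequence was available.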
# [2] = biological target: Gal(b1-4)GlcNAc(b1-3)Gal(b1-4)GlcNAc(b1-2)[Gal(b1-4)GlcNAc(b1-3)Gal(b1-4)GlcNAc(b1-6)]Man(a1-6)[Gal(b1-4)GlcNAc(b1-3)Gal(b1-4)GlcNAc(b1-2)Man(a1-3)]Man(b1-4)GlcNAc(b1-4)[Fuc(a1-6)]GlcNAc
# Summary of the method: as §1
# [3] = biological target: Gal(b1-4)GlcNAc(b1-3)Gal(b1-4)GlcNAc(b1-3)Gal(b1-4)GlcNAc
# Summary of the method: as §1
# [4] = biological target: Gal(b1-4)GlcNAc(b1-3)Gal(b1-4)GlcNAc(b1-3)Gal(b1-4)GlcNAc(b1-2)Man(a1-3)[Gal(b1-4)GlcNAc(b1-3)Gal(b1-4)GlcNAc(b1-3)Gal(b1-4)GlcNAc(b1-2)Man(a1-6)]Man(b1-4)GlcNAc(b1-4)GlcNAc
# Summary of the method: as §1
# [5] = biological target: Gal(b1-4)GlcNAc(b1-3)Gal(b1-4)GlcNAc(b1-3)Gal(b1-4)GlcNAc(b1-2)Man(a1-3)[Gal(b1-4)GlcNAc(b1-3)Gal(b1-4)GlcNAc(b1-3)Gal(b1-4)GlcNAc(b1-2)Man(a1-6)]Man(b1-4)GlcNAc(b1-4)[Fuc(a1-6)]GlcNAc
# Summary of the method: as §1
# [6] = biological target: Gal(b1-4)GlcNAc(b1-3)Gal(b1-4)GlcNAc(b1-3)Gal(b1-4)GlcNAc(b1-2)[Gal(b1-4)GlcNAc(b1-3)Gal(b1-4)GlcNAc(b1-3)Gal(b1-4)GlcNAc(b1-6)]Man(a1-6)[Gal(b1-4)GlcNAc(b1-3)Gal(b1-4)GlcNAc(b1-3)Gal(b1-4)GlcNAc(b1-2)Man(a1-3)]Man(b1-4)GlcNAc(b1-4)[Fuc(a1-6)]GlcNAc
# Summary of the method: as §1
# [7] = biological target: Gal(b1-4)GlcNAc(b1-3)Gal(b1-4)GlcNAc(b1-3)Gal(b1-4)GlcNAc(b1-3)Gal(b1-4)GlcNAc(b1-2)Man(a1-3)[Gal(b1-4)GlcNAc(b1-3)Gal(b1-4)GlcNAc(b1-3)Gal(b1-4)GlcNAc(b1-3)Gal(b1-4)GlcNAc(b1-2)Man(a1-6)]Man(b1-4)GlcNAc(b1-4)GlcNAc
# Summary of the method: as §1
# [8] = biological target: Gal(b1-4)GlcNAc(b1-3)Gal(b1-4)GlcNAc(b1-3)Gal(b1-4)GlcNAc(b1-3)Gal(b1-4)GlcNAc(b1-2)Man(a1-3)[Gal(b1-4)GlcNAc(b1-3)Gal(b1-4)GlcNAc(b1-3)Gal(b1-4)GlcNAc(b1-3)Gal(b1-4)GlcNAc(b1-2)Man(a1-6)]Man(b1-4)GlcNAc(b1-4)[Fuc(a1-6)]GlcNAc
# Summary of the method: as §1
# [9] = biological target: Gal(b1-4)GlcNAc(b1-3)Gal(b1-4)GlcNAc(b1-3)Gal(b1-4)GlcNAc(b1-3)Gal(b1-4)GlcNAc(b1-2)[Gal(b1-4)GlcNAc(b1-3)Gal(b1-4)GlcNAc(b1-3)Gal(b1-4)GlcNAc(b1-3)Gal(b1-4)GlcNAc(b1-6)]Man(a1-6)[Gal(b1-4)GlcNAc(b1-3)Gal(b1-4)GlcNAc(b1-3)Gal(b1-4)GlcNAc(b1-3)Gal(b1-4)GlcNAc(b1-2)Man(a1-3)]Man(b1-4)GlcNAc(b1-4)[Fuc(a1-6)]GlcNAc
# Summary of the method: as §1
# [10] = biological target: Gal(b1-4)GlcNAc(b1-3)Gal(b1-4)GlcNAc(b1-3)Gal(b1-4)GlcNAc(b1-3)Gal(b1-4)GlcNAc(b1-3)Gal(b1-4)GlcNAc(b1-2)Man(a1-3)[Gal(b1-4)GlcNAc(b1-3)Gal(b1-4)GlcNAc(b1-3)Gal(b1-4)GlcNAc(b1-3)Gal(b1-4)GlcNAc(b1-3)Gal(b1-4)GlcNAc(b1-2)Man(a1-6)]Man(b1-4)GlcNAc(b1-4)GlcNAc
# Summary of the method: as §1
# [11] = biological target: Gal(b1-4)GlcNAc(b1-3)Gal(b1-4)GlcNAc(b1-3)Gal(b1-4)GlcNAc(b1-3)Gal(b1-4)GlcNAc(b1-3)Gal(b1-4)GlcNAc(b1-2)Man(a1-3)[Gal(b1-4)GlcNAc(b1-3)Gal(b1-4)GlcNAc(b1-3)Gal(b1-4)GlcNAc(b1-3)Gal(b1-4)GlcNAc(b1-3)Gal(b1-4)GlcNAc(b1-2)Man(a1-6)]Man(b1-4)GlcNAc(b1-4)[Fuc(a1-6)]GlcNAc
# Summary of the method: as §1
# [12] = biological target: Gal(b1-4)GlcNAc(b1-3)Gal(b1-4)GlcNAc(b1-3)Gal(b1-4)GlcNAc(b1-3)Gal(b1-4)GlcNAc(b1-3)Gal(b1-4)GlcNAc(b1-2)[Gal(b1-4)GlcNAc(b1-3)Gal(b1-4)GlcNAc(b1-3)Gal(b1-4)GlcNAc(b1-3)Gal(b1-4)GlcNAc(b1-3)Gal(b1-4)GlcNAc(b1-6)]Man(a1-6)[Gal(b1-4)GlcNAc(b1-3)Gal(b1-4)GlcNAc(b1-3)Gal(b1-4)GlcNAc(b1-3)Gal(b1-4)GlcNAc(b1-3)Gal(b1-4)GlcNAc(b1-2)Man(a1-3)]Man(b1-4)GlcNAc(b1-4)[Fuc(a1-6)]GlcNAc
# Summary of the method: as §1
# [13] = biological target: Gal(b1-4)GlcNAc(b1-3)Gal(b1-4)GlcNAc(b1-3)Gal(b1-4)GlcNAc(b1-3)Gal(b1-4)GlcNAc(b1-3)Gal(b1-4)GlcNAc(b1-3)Gal(b1-4)GlcNAc(b1-2)Man(a1-3)[Gal(b1-4)GlcNAc(b1-3)Gal(b1-4)GlcNAc(b1-3)Gal(b1-4)GlcNAc(b1-3)Gal(b1-4)GlcNAc(b1-3)Gal(b1-4)GlcNAc(b1-3)Gal(b1-4)GlcNAc(b1-2)Man(a1-6)]Man(b1-4)GlcNAc(b1-4)GlcNAc
# Summary of the method: as §1
# [14] = biological target: Gal(b1-4)GlcNAc(b1-3)Gal(b1-4)GlcNAc(b1-3)GalNAc
# Summary of the method: as §1
# [15] = biological target: Gal(b1-4)GlcNAc(b1-3)Gal(b1-4)GlcNAc(b1-3)[Gal(b1-4)GlcNAc(b1-3)Gal(b1-4)GlcNAc(b1-6)]GalNAc
# Summary of the method: as §1
# [16] = biological target: Gal(b1-4)GlcNAc(b1-3)Gal(b1-4)GlcNAc(b1-6)[Gal(b1-3)]GalNAc
# Summary of the method: as §1
# [17] = biological target: Gal(b1-4)GlcNAc(b1-3)Gal(b1-4)[Fuc(a1-3)]GlcNAc(b1-3)Gal(b1-4)[Fuc(a1-3)]GlcNAc
# Summary of the method: as §1
# [18] = biological target: Gal(b1-4)GlcNAc(b1-3)GalNAc
# Summary of the method: as §1
# [19] = biological target: Gal(b1-4)GlcNAc(b1-3)[Fuc(a1-3)GlcNAc(b1-6)]Gal(b1-4)Glc
# Summary of the method: as §1
# [20] = biological target: Gal(b1-4)GlcNAc(b1-3)[Gal(b1-4)GlcNAc(b1-6)]Gal(b1-4)GlcNAc
# Summary of the method: as §1
# [21] = biological target: Gal(b1-4)GlcNAc(b1-3)[GlcNAc(b1-6)]Gal(b1-4)GlcNAc
# Summary of the method: as §1
# [22] = biological target: Gal(b1-4)GlcNAc(b1-6)Gal(b1-4)GlcNAc
# Summary of the method: as §1
binder,measurement,setting,value
B1,glycan array binding signal (z-score),[1],-0.457
same,glycan array binding signal (z-score),[2],0.44
same,glycan array binding signal (z-score),[3],-0.084
same,glycan array binding signal (z-score),[4],0.447
same,glycan array binding signal (z-score),[5],-0.133
same,glycan array binding signal (z-score),[6],-0.015
same,glycan array binding signal (z-score),[7],0.135
same,glycan array binding signal (z-score),[8],-0.103
same,glycan array binding signal (z-score),[9],0.023
same,glycan array binding signal (z-score),[10],-0.119
same,glycan array binding signal (z-score),[11],0.303
same,glycan array binding signal (z-score),[12],1.02
same,glycan array binding signal (z-score),[13],0.202
same,glycan array binding signal (z-score),[14],-0.299
same,glycan array binding signal (z-score),[15],0.852
same,glycan array binding signal (z-score),[16],0.317
same,glycan array binding signal (z-score),[17],-0.36
same,glycan array binding signal (z-score),[18],-0.244
same,glycan array binding signal (z-score),[19],-0.173
same,glycan array binding signal (z-score),[20],-0.191
same,glycan array binding signal (z-score),[21],0.036
same,glycan array binding signal (z-score),[22],-0.199
